Toxic doses and inconclusive results are not listed. A number of entries come with more than one value. The other results are left out here. The source may hold further records. Results that share an entry are repeated measurements (runs, samples, wells, individuals or studies). Brackets tell where a record comes from. Letters count within one entry.
Tested on: P388 leukemia ip, CD2F1 mice, survival T/C
Test: NCI In Vivo Anticancer Drug Screen. Data for tumor model P388 Leukemia (intraperitoneal) in CD2F1 (CDF1) mice
Settings: endpoint: median survival time, higher = longer survival
[1] = dose: 25.0 mg/kg/injection, schedule: Q01DX009 (ip), vehicle: saline with Tween-80

Structure (SMILES): C1OC1CN1CCN(CC2CO2)CC1 (stereo unspecified)
- T/C (dose: 32.0 mg/kg/injection, schedule: Q01DX009 (ip), vehicle: saline): 105 % of control and 179 % of control

Structure (SMILES): CN(N=O)C(=O)NCC1OC(OC2(CO)OC(CNC(=O)N(C)N=O)C(O)C2O)C(O)C(O)C1O (stereo unspecified)
- T/C (dose: 400.0 mg/kg/injection, schedule: Q01DX009 (ip), vehicle: saline): 104 % of control, 150 % of control, 166 % of control

Structure (SMILES): OC(CI)C(O)C(O)C(O)CI (stereo unspecified)
- T/C (dose: 200.0 mg/kg/injection, schedule: Q01DX009 (ip), vehicle: saline with Tween-80): 115 % of control [sample A] and 109 % of control, 170 % of control [sample B]
- T/C (dose: 400.0 mg/kg/injection, schedule: Q01DX009 (ip), vehicle: saline with Tween-80): 120 % of control [sample A] and 160 % of control [sample B]

Structure (SMILES): CCC12NC(=O)NC1(C)NC(=O)N2 (stereo unspecified)
- T/C [1]: 104 % of control and 162 % of control

Structure (SMILES): C[C@]12CC[C@H]3[C@@H](CCC4=CC(=O)CC[C@@]43C)[C@@H]1CC[C@@H]2OC(=O)Cc1ccc(N(CCCl)CCCl)cc1
- T/C (dose: 400.0 mg/kg/injection, schedule: Q04DX003 (ip), vehicle: saline with Tween-80): 122 % of control and 166 % of control

Structure (SMILES): CCOc1ccc(-c2nc3ccc(-c4nc5ccc(N6CCN(C)CC6)cc5[nH]4)cc3[nH]2)cc1
- T/C (dose: 1.56 mg/kg/injection, schedule: Q01DX005 (ip), vehicle: water): 124 % of control and 150 % of control

Structure (SMILES): O=C1NC(=O)C2(CCCc3ccc(N(CCCl)CCCl)cc32)N1 (stereo unspecified)
- T/C (dose: 50.0 mg/kg/injection, schedule: Q01DX009 (ip), vehicle: saline with Tween-80): 100 % of control and 181 % of control

Structure (SMILES): O=C(Nc1ccc(C2=NCCCN2)cc1)Nc1cccc(C(=O)Nc2ccc(C3=NCCCN3)cc2)c1
- T/C [1]: 90 % of control and 172 % of control

Structure (SMILES): NC(=S)c1ccccc1[N+](=O)[O-]
- T/C (dose: 200.0 mg/kg/injection, schedule: Q01DX001 (ip), vehicle: saline): 99 % of control and 151 % of control

Structure (SMILES): CC(/C=C/C1OC(=O)C=CC1C)=C\C(C)C/C=C/C(C)=C/C(CO)C(=O)C(C)C(O)C(C)C/C(C)=C/C(=O)O (stereo unspecified)
- T/C (dose: 200.0 micrograms/kg/injection, schedule: Q01DX005 (ip), vehicle: other): 86 % of control and 160 % of control

Source: PubChem BioAssay AID330 (DTP/NCI, 2004)
